Experimental data taken from PubChem BioAssay AID1030 (National Center for Advancing Translational Sciences (NCATS), 2008).
Among all 220,000 compounds or so, about 16,000 (7.3%) were called active. This list was built around the results that the source calls inconclusive (neither active nor inactive); the mix of calls is not that of the screen. Calls come from the whole dose curve; as a rule, active = well fitted inhibition curve with a large enough effect (not every such curve was filed as active); inconclusive = small, poorly fitted or top-dose-only effect, or another doubt; inactive = no such curve, though single readings can be large or run the other way. Potencies of inconclusive entries are left out as doubtful fits.

Target: Aldehyde dehydrogenase 1A1 (Homo sapiens) (UniProt P00352)
UniProt P00352, sequence (P00352 whole entry, looked up): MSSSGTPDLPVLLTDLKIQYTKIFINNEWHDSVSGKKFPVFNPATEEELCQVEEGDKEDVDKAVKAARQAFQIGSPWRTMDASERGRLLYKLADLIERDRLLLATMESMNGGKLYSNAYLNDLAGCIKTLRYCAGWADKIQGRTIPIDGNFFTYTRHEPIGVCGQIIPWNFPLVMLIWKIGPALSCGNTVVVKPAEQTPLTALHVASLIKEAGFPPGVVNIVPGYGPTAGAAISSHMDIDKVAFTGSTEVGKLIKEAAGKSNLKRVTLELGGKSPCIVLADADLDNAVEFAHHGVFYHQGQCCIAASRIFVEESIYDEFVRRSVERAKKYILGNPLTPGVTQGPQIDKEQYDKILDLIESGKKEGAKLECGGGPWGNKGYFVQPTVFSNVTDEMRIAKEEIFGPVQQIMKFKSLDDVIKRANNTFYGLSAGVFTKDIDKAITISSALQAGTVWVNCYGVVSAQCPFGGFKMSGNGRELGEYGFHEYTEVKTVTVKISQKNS
Assay: qHTS Assay for Inhibitors of Aldehyde Dehydrogenase 1 (ALDH1A1);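 for activity, negative = inhibition: plate controls were no enzyme wells and a reference inhibitor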
Details: Purified ALDH1A1, NADH fluorescence, propionaldehyde substrate; series mostly up to 75.3 µM; activity, negative = inhibition: at the top concentration
Potency is the fitted concentration of half-maximal effect; tags give direction and shape of the fitted curve.

Question: Which “activity, negative = inhibition” value does the source give for `COc1cccc([C@@H]2Oc3ccc(Br)cc3C[C@H]2O)c1` here?
Answer: Its value is inactive: 5.88%.

Question: Which Potency does the source give for `COc1ccc(N2CCN(C(=O)c3ccc4nc(N5CCCCC5)sc4c3)CC2)cc1` here?
Answer: Its Potency is inconclusive [inhibitor, single point].

Question: For `COc1cccc(-c2cc(C(F)(F)F)n3nc(N)nc3n2)c1`, which Potency is on record?
Answer: The Potency was inconclusive [inhibitor, single point].

Question: For `CC(=O)Nn1cc2c(c1-c1ccccc1)c(=O)n(C)c(=O)n2C`, which Potency is on record?
Answer: Its Potency is inconclusive [inhibitor, single point].

Question: With `C/C(=N/Nc1nc(-c2ccc(Cl)cc2)cs1)c1cccs1` as the molecule, how does the Potency read?
Answer: Its Potency is active: 15.8 µM.

Question: Which “activity, negative = inhibition” value does the source give for `COC(=O)N1CCC2(CCCN(C(=O)Nc3cccc(F)c3)C2)CC1` here?
Answer: The value was inactive: 1.13%.

Question: For `Cc1cccc(C(=O)Oc2ccc(/C=N/NC(=O)c3ccccc3O)cc2)c1`, which Potency is on record?
Answer: Its Potency is inconclusive [inhibitor, partial curve].

Question: With `N#CCc1ccc(C(=O)c2ccccc2F)s1` as the molecule, how does the “activity, negative = inhibition” value read?
Answer: The value was inactive: -81.5%.

Question: For `COCCN1C(=O)c2ccc(C(=O)NCc3cccnc3)cc2C1=O`, which Potency is on record?
Answer: Its Potency is inconclusive [inhibitor, partial curve].

Question: How did the Potency turn out when `O=C(c1ccco1)N1CCC2(CC1)CN(c1ccccc1)C2` was run?
Answer: The Potency was active: 14.1 µM.

Question: For `c1ccc2c(c1)NC1(CCCCCC1)n1c-2nc2ccccc21`, which Potency is on record?
Answer: Its Potency is inconclusive [inhibitor, partial curve].

Question: How did the “activity, negative = inhibition” value turn out when `COc1cc(C)c(C)cc1S(=O)(=O)N1CCN(Cc2ccc3c(c2)OCO3)CC1` was run?
Answer: Its value is inactive: -9.45%.

Question: How did the “activity, negative = inhibition” value turn out when `CCC(=O)Nc1ccc(N2CCOCC2)c(S(=O)(=O)Nc2ccc(OC)cc2)c1` was run?
Answer: Its value is inactive: -2.01%.

Question: For `COc1ccc(C)c2sc(N3CCCC3)nc12`, which Potency is on record?
Answer: The Potency was inconclusive [inhibitor, single point].

Question: For `COc1cc2c(cc1NC(=S)NC(=O)/C=C/c1ccc(OC)c(OC)c1)oc1ccccc12`, which Potency is on record?
Answer: Its Potency is inconclusive [inhibitor, single point].

Question: Which Potency does the source give for `Cc1cccc(C)c1NC(=S)Nc1ccccc1C(=O)NCc1ccco1` here?
Answer: The Potency was inconclusive [inhibitor, partial curve].

Question: How did the Potency turn out when `CNc1ncncc1-c1ccccc1OC` was run?
Answer: The Potency was inconclusive [inhibitor, single point].

Question: `Cc1ccc(N2C(N)=C(C#N)C(c3cccnc3)C3=C2CCCC3=O)cc1` (stereo not drawn) was tested. Which “activity, negative = inhibition” value did it give?
Answer: The value was inactive: 7.02%.

Question: With `Cc1cc(C)n(C(=O)CNC(=O)COc2ccccc2)n1` as the molecule, how does the “activity, negative = inhibition” value read?
Answer: Its value is inactive: 10.9%.

Question: For `Cc1noc(C)c1C(=O)N1CCC2(CC1)CCN(c1ccccn1)CC2`, which Potency is on record?
Answer: The Potency was inconclusive [inhibitor, partial curve].

Question: For `O=C(Nc1ccc2c(c1)CCC2)c1cccc(S(=O)(=O)N2CCN(c3ccccc3)CC2)c1`, which “activity, negative = inhibition” value is on record?
Answer: The value was inactive: 1.13%.

Question: For `CCCCN(C)C(=O)C1CCN(Cc2ccc(OCc3ccccc3)cc2)CC1`, which “activity, negative = inhibition” value is on record?
Answer: Its value is inactive: -12.9%.

Question: With `COc1cc(/C=N/NC(=S)NC2CC3CC2C2C=CCC32)ccc1O` (stereo not drawn) as the molecule, how does the Potency read?
Answer: Its Potency is inconclusive [inhibitor, partial curve].

Question: `CCCCCCn1c(N2CCC(C)CC2)nc2c1c(=O)[nH]c(=O)n2C` was tested. Which Potency did it give?
Answer: Its Potency is inconclusive [inhibitor, full curve].

Question: For `O=c1[nH]c(=O)n(Cc2ccccc2)c2nc(-c3ccc(Oc4ccc(F)cc4)c([N+](=O)[O-])c3)n(CCO)c12`, which “activity, negative = inhibition” value is on record?
Answer: The value was inactive: 0.351%.

Question: With `Cc1c(-c2cc(C(=O)O)c3ccccc3n2)cnn1C` as the molecule, how does the Potency read?
Answer: The Potency was inconclusive [inhibitor, partial curve].

Question: `CCCc1[nH]nc2c1C(c1ccc(OC(=O)c3ccco3)cc1)C(C#N)=C(N)O2` (stereo not drawn) was tested. Which Potency did it give?
Answer: The Potency was inconclusive [inhibitor, partial curve].

Question: `COc1cccc(/C=N/n2c(-c3n[nH]c4c3CCC4)n[nH]c2=S)c1OC` was tested. Which Potency did it give?
Answer: The Potency was inconclusive [inhibitor, single point].

Question: For `Cc1c(C(=O)N/N=C/C(C)C)[nH]c2ccc([N+](=O)[O-])cc12`, which Potency is on record?
Answer: The Potency was active: 14.1 µM.

Question: With `COc1cccc(/C=C2/CN(C)CC3=C2OC(N)=C(C#N)C3c2cccc(OC)c2)c1` (stereo not drawn) as the molecule, how does the Potency read?
Answer: The Potency was inconclusive [inhibitor, single point].

Question: Which Potency does the source give for `Cc1ccc(CNC(=O)CN(c2cccc([N+](=O)[O-])c2)S(=O)(=O)c2ccccc2)cc1` here?
Answer: The Potency was inconclusive [inhibitor, single point].

Question: Which “activity, negative = inhibition” value does the source give for `CC(C)C(=O)Nc1ccc(-c2nc3ccccc3c(=O)o2)cc1` here?
Answer: Its value is inactive: -13.5%.

Question: For `CC(=O)N=c1c(C#N)cc2c(=O)n3cccc(C)c3nc2n1Cc1ccco1`, which Potency is on record?
Answer: The Potency was inconclusive [inhibitor, single point].

Question: Which Potency does the source give for `Cc1ccc(/C=[N+](\[O-])c2ccc(N(C)C)cc2)c2nsnc12` here?
Answer: Its Potency is active: 1.12 µM.

Question: `Cc1cc(NS(=O)(=O)c2ccc(NC(=S)NC(=O)c3cccc(S(=O)(=O)N(C)C)c3)cc2)no1` was tested. Which Potency did it give?
Answer: Its Potency is inconclusive [inhibitor, single point].

Question: How did the Potency turn out when `Cc1c(C(=O)Oc2ccc(-c3cnc4ccccc4n3)cc2)cccc1[N+](=O)[O-]` was run?
Answer: The Potency was inconclusive [inhibitor, single point].

Question: How did the “activity, negative = inhibition” value turn out when `CCc1ccc(NC(=O)Cn2nc(C(F)(F)F)c3c2CCC3)cc1` was run?
Answer: Its value is inactive: 6.22%.

Question: `CC(C)[C@H](NC(=O)C1CCCC1)c1nc2ccccc2[nH]1` was tested. Which “activity, negative = inhibition” value did it give?
Answer: The value was inactive: -6.9%.

Question: How did the Potency turn out when `COc1cc(/C=N/c2oc(-c3ccccc3)cc2C#N)ccc1O` was run?
Answer: Its Potency is inconclusive [inhibitor, partial curve].

Question: For `O=C(O)C1CCCCN1S(=O)(=O)c1ccc2ccccc2c1` (stereo not drawn), which Potency is on record?
Answer: Its Potency is inconclusive [inhibitor, single point].

Question: For `O=C(Nc1ccc(N2CCCCC2)cc1)c1cccnc1`, which Potency is on record?
Answer: The Potency was inconclusive [inhibitor, single point].

Question: With `CCCCNc1nc(C)nc2c1nc(-c1ccccc1)n2CCCN(CC)CC` as the molecule, how does the Potency read?
Answer: The Potency was inconclusive [inhibitor, partial curve].

Question: For `O=C1C2CC=C(Cl)CC2C(=O)N1CCCCCCN1C(=O)C2CC=C(Cl)CC2C1=O` (stereo not drawn), which Potency is on record?
Answer: Its Potency is active: 22.4 µM.

Question: How did the “activity, negative = inhibition” value turn out when `Cc1nc(-c2cccc(NS(=O)(=O)c3cccc4ccccc34)c2)cs1` was run?
Answer: The value was inactive: 5.26%.

Question: For `CCC(CC)C(=O)Nc1ccc([N+](=O)[O-])cn1`, which “activity, negative = inhibition” value is on record?
Answer: The value was inactive: -1.64%.

Question: Which Potency does the source give for `C/C(CC(=O)NCc1ccco1)=N\NC(=O)Cc1cccc2ccccc12` here?
Answer: Its Potency is active: 12.6 µM.

Question: `Cn1cccc1/C=C(\C#N)c1ccccc1` was tested. Which “activity, negative = inhibition” value did it give?
Answer: Its value is inactive: -9.96%.

Question: For `CC(C)NS(=O)(=O)c1ccc2c3c(cccc13)CC2`, which Potency is on record?
Answer: The Potency was inconclusive [inhibitor, partial curve].
